The values that follow come from PubChem BioAssay AID360 (National Center for Advancing Translational Sciences (NCATS), 2006).

SMILES strings stand for the structures. About 550 (1.1%) of roughly 48,000 compounds were called active. Roughly 4% stayed inconclusive and do not appear here. Rule as the data show it: active = potency below about 15 µM; inconclusive = mostly about 16 µM to 33 µM; inactive = weaker than that. The list shows a part of the results.
Potency is read from the fitted curve at half-maximal effect.

Chain of UniProt P04062 (P04062 whole entry, looked up): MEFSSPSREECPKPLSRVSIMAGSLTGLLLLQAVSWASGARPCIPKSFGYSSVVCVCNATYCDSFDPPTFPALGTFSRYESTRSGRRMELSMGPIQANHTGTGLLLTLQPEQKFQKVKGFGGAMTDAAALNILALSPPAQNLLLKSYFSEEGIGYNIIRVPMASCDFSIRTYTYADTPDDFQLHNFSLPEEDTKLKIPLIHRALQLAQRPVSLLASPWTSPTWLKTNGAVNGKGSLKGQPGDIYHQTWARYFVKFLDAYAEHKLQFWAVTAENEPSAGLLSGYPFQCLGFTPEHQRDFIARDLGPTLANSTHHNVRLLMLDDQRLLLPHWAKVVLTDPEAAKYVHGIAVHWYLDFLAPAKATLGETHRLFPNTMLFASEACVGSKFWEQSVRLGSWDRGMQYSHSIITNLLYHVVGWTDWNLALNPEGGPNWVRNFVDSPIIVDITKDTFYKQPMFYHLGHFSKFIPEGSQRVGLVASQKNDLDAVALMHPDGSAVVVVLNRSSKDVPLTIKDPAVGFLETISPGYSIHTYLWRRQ

The assay addresses Lysosomal acid glucosylceramidase (Homo sapiens) (UniProt P04062). Briefly: Glucocerebrosidase.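 Also: the screen sought inhibitors.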 The conditions noted are these: purified enzyme, resorufin glucoside fluorescence (screen aimed at inhibitors), 20 min. In a few lines:
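Wild-type enzyme at 0.2 nM final in 50mM citric acid/KH2PO4, 10mM sodium taurocholate, 0.01% tween-20, pH 5.9, with resorufin beta-D-glucopyranoside at 30 uM final. Compounds titrated, 20 min at RT, red fluorescence read; AC50 from titration.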
For `COc1ccc(CCN(Cc2cc3cc4c(cc3[nH]c2=O)OCO4)C(C)=O)cc1OC`, the Potency is inactive: > 76.9 µM. Consider `CCn1nc(C(=O)N2CCN(Cc3ccc4c(c3)OCO4)CC2)c2ccccc2c1=O`, for which the Potency is inactive: > 76.9 µM. Regarding `COC(=O)c1ccc(NC(=O)CN(c2ccc(OC)cc2)S(C)(=O)=O)cc1`, the Potency is inactive: > 76.9 µM. Take `Cc1cc(-n2c(C)cc(C(=O)CN3C(=O)NC4(CCCCC4C)C3=O)c2C)no1` (stereo unspecified): the Potency was inactive: > 76.9 µM.

For `CC(=O)C1=C(c2ccccc2)NC(=O)NC1c1ccccc1OCC#N` (stereo unspecified), the Potency was inactive: > 76.9 µM. Regarding `COc1ccc(C(=O)N2CC3(C)CC2CC(C)(C)C3)cc1` (stereo unspecified), the Potency was inactive: > 76.9 µM.

Take `CCn1nc(C(=O)Nc2ccc(S(=O)(=O)Nc3nccs3)cc2)c2ccccc2c1=O`: the Potency is inactive: > 76.9 µM. As for `CC(C)c1ccc(NC(=O)CSc2nnc(-c3ccccn3)n2C)cc1`, the Potency is inactive: > 76.9 µM. For `CC1(C)CC(CCNC(=O)c2ccc(-n3cnnn3)cc2)CC(C)(C)N1`, the Potency is inactive: > 76.9 µM. In the case of `CCS(=O)(=O)Nc1ccc(C(=O)CC2(O)C(=O)Nc3ccccc32)cc1` (stereo unspecified), the Potency is inactive: > 76.9 µM. As to `Cc1ccc2cc(CN(CC3CCCO3)S(=O)(=O)c3cccc4nsnc34)c(=O)[nH]c2c1` (stereo unspecified), the Potency is inactive: > 76.9 µM. For the compound `O=C(c1cc2n(n1)C(C(F)(F)F)CC(c1ccc(F)cc1)N2)N1CCCC1` (stereo unspecified), the Potency was inactive: > 76.9 µM.

Consider `Cn1c(=O)c2c(nc(N3CCc4ccccc4C3)n2Cc2ccccc2F)n(C)c1=O`, for which the Potency is inactive: > 76.9 µM. Consider `CC(C)(C)C1=C(C#N)C(c2cc3c(cc2Br)OCO3)C(C#N)=C(N)O1` (stereo unspecified), for which the Potency result is “inactive”. Consider `Cc1ccc(S(=O)(=O)c2cc3c(=O)n4cc(C)ccc4nc3n(CC3CCCO3)c2=N)cc1` (stereo unspecified), for which the Potency is inactive: > 76.9 µM.

Turning to `O=C(O)CCc1ccc(-c2ccc(F)cc2)n1Cc1ccco1`, the Potency is inactive: > 76.9 µM.

For `C=C(C)COc1ccc(-c2[nH]ncc2-c2ccc(OC)c(OC)c2)c(O)c1`, the Potency was inactive: > 76.9 µM.

Take `Cc1cccc(C)c1N1CCN(S(=O)(=O)c2ccc(F)cc2)CC1`: the Potency is inactive: > 76.9 µM. In the case of `CN1CCc2c(sc3nc(SCC(N)=O)n(-c4ccccc4)c(=O)c23)C1`, the Potency was inactive: > 76.9 µM. Regarding `Cc1cc(C)n(C(=O)CN2C(=O)COc3ccccc32)n1`, the Potency is inactive: > 76.9 µM. Consider `CCCCNC(=O)C1C2C=CC3(CN(Cc4ccc(C)cc4)C(=O)C13)O2` (stereo unspecified), for which the Potency was inactive: > 76.9 µM. Then `O=C(N1CCOCC1)C1(c2ccccc2)CCCCC1`, with inactive: > 76.9 µM; and `CCCC(c1nnnn1Cc1ccccc1)N1CCN(c2ccccc2OC)CC1` (stereo unspecified), with inactive: > 76.9 µM.

For `COCCN1CC(O)=C(c2nc3ccccc3c(=O)[nH]2)C1=N`, the Potency is inactive: > 76.9 µM. On to `COc1cc(C(=O)Nc2ccc(NC(=O)C3CC3)nc2)cc(OC)c1OC`, for which the Potency is inactive: > 76.9 µM. Then `O=S(=O)(c1ccc2c(c1)OCCO2)N1CCC(c2nc3ccccc3s2)CC1`, with inactive: > 76.9 µM; and `Cc1ccc(C(N)=S)c(C)c1`, with inactive: > 76.9 µM; and `Cn1ncc2c1ncn1c(-c3ccccc3Cl)nnc21`, with inactive: > 76.9 µM. `CCOC(=O)C1CCCN(CCC(=O)Nc2ccc(F)c(F)c2)C1` (stereo unspecified): the Potency was inactive: > 76.9 µM. For `C=CCn1c(-c2ccc(Cl)cc2)c[nH]c1=S`, the Potency was inactive: > 76.9 µM. For the compound `Cc1cc(C)n(-c2ccc(C(=O)OCC(=O)N(CC(C)C)C3CCS(=O)(=O)C3)cc2)n1` (stereo unspecified), the Potency is inactive: > 76.9 µM.

For the compound `CCOC(=O)c1c(C)c(C(=O)NCCCOC)c(C)n1C`, the Potency was inactive: > 76.9 µM. As to `CC(=O)c1ccc2c3c(cccc13)C(=O)N(c1c(C)nn(C)c1C)C2=O`, the Potency is inactive: > 76.9 µM. For `CC(C)N1C(=S)SC(C)(C)C1NO` (stereo unspecified), the Potency was inactive: > 76.9 µM. On to `Cc1ccc2nc(NC(=O)C3CCCN(S(=O)(=O)c4cccc5nsnc45)C3)sc2c1` (stereo unspecified), for which the Potency is inactive: > 76.9 µM.

As for `N#Cc1c(N)n(CCNC(=O)c2cccs2)c2nc3ccccc3nc12`, the Potency result is “inactive”. Consider `Cc1cc2cc(CN(CC3CCCO3)C(=O)c3cnccn3)c(=O)[nH]c2cc1C` (stereo unspecified), for which the Potency is inactive: > 76.9 µM. Take `O=c1cc(O)nc(SC23CC4CC(CC(C4)C2)C3)[nH]1`: the Potency was inactive: > 76.9 µM. `O=C(Cn1c(=O)sc2ccccc21)Nc1ccccc1C(=O)O`: the Potency is inactive: > 76.9 µM. With `O=C(NCC1CCCO1)C1c2ccccc2C(=O)N1Cc1ccc2c(c1)OCO2` (stereo unspecified), the Potency is inactive: > 76.9 µM. Turning to `Cc1c(NC(=O)c2ccccc2NS(=O)(=O)c2ccc(F)cc2)c(=O)n(-c2ccccc2)n1C`, the Potency was inactive: > 76.9 µM. Take `Cc1cc(C)c2c(CC(=O)NCc3ccco3)coc2c1`: the Potency is inactive: > 76.9 µM. For the compound `Cc1ccc(NC2=NC(c3ccc(O)cc3)n3c(nc(C)cc3=O)N2)cc1` (stereo unspecified), the Potency was inactive: > 76.9 µM.

For the compound `CCS(=O)(=O)N1CCCC(C(=O)NCCCN(C)Cc2ccccc2)C1` (stereo unspecified), the Potency was inactive: > 76.9 µM. Turning to `C=CCn1c(=O)[nH]c2cc(C(=O)N3CCN(c4cc(C)ccc4C)CC3)ccc2c1=O`, the Potency is inactive: > 76.9 µM. As to `Cc1nn(-c2ccccc2)c2nc(-c3ccco3)cc(C(=O)O)c12`, the Potency is inactive: > 76.9 µM.

Take `COc1ccc(N2C(=NC(C)=O)SC3CS(=O)(=O)CC32)cc1OC` (stereo unspecified): the Potency is inactive: > 76.9 µM.

Take `COCC(=O)N(CCc1ccc(OC)cc1)Cc1nc2ccccc2c(=O)[nH]1`: the Potency is inactive: > 76.9 µM. Consider `c1ccc(OCCCCn2cnc3ccccc32)cc1`, for which the Potency was inactive: > 76.9 µM. In the case of `Cc1cccc(OCC(O)Cn2c(-n3nc(C)cc3C)nc3c2c(=O)[nH]c(=O)n3C)c1` (stereo unspecified) it was inactive: > 76.9 µM; in that of `CCOC(=O)C(NC(C)=O)(OCc1ccc(F)cc1)C(F)(F)F` (stereo unspecified), inactive: > 76.9 µM; in that of `CCc1c(C)nc(Nc2nc(C)c3cc(OC)ccc3n2)[nH]c1=O`, inactive: > 76.9 µM. For the compound `COC(=O)c1ccc2c(c1)nc(C)n2CCO`, the Potency was inactive: > 76.9 µM. Consider `CC(C)C(=O)N1CCN(c2ccccc2NC(=O)Cc2ccc(Cl)cc2)CC1`, for which the Potency is inactive: > 76.9 µM. For the compound `CC(=O)c1ccc(NC2OC(C)C(O)C(O)C2O)cc1` (stereo unspecified), the Potency was inactive: > 76.9 µM. Regarding `CC(=O)c1cccc(N(CC(=O)N2CCCC2)S(C)(=O)=O)c1`, the Potency is inactive: > 76.9 µM.
